# Measured values as given in the supplement of paper PMC12217912.
# The other results are listed elsewhere or left out. Sequences were assembled here from the parent chain. Values near 0.05 are background.
# B1: TEV protease; numbered along this chain (parent)
# chain: MGESLFKGPRDYNPISSSICHLTNESDGHTTSLYGIGFGPFIITNKHLFRRNNGTLVVQSLHGVFKVKDTTTLQQHLVDGRDMIIIRMPKDFPPFPQKLKFREPQREERICLVTTNFQTKSMSSMVSDTSCTFPSGDGIFWKHWIQTKDGQCGSPLVSTRDGFIVGIHSASNFTNTNNYFTSVPKNFMELLTNQEAQQWVSGWRLNADSVLWGGHKVFMVKPEEPFQPVKEATQL
# Variants of: B1
# Experiment: raw area under fraction-flipped curve 0-4 h after induction (AUC4h, not background-subtracted), DNA-recorder readout of cleavage of the substrate (dimensionless); higher = more cleavage of the substrate by the protease variant
# Conditions: temperature: 34 °C; time window: 0-4 h after rhamnose induction
# Description: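 In vivo DNA recorder in E. coli TOP10(DE3) ΔrhaA at 34 °C. Each TEVp single-site mutant (parent TEVp 0) is paired with a single-site variant of the 7-mer TEVs (canonical ENLYFQ|S). The substrate sits between flexible linkers in a Bxb1-sfGFP-TEVs-SsrA fusion, so cleavage stabilises Bxb1 and speeds flipping of a recombination array, read by NGS. The value is the raw area under the fraction-flipped curve over 0-4 h after rhamnose induction (AUC4h), with ≥20 reads per time point. It is not background-subtracted; inactive controls average about 0.047.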
# 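Also: Bxb1 expression induced with 0.2% (w/v) L-rhamnose at OD600 near 0.5, cultures sampled hourly, flipped fraction per protease–substrate barcode pair counted by paired-end Illumina sequencing.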
Variant,area with substrate ENLAFQS,area with substrate ENLDFQS,area with substrate ENLEFQS,area with substrate ENLFFQS,area with substrate ENLHFQS,area with substrate ENLKFQS,area with substrate ENLLFQS,area with substrate ENLMFQS,area with substrate ENLNFQS,area with substrate ENLPFQS,area with substrate ENLQFQS,area with substrate ENLRFQS,area with substrate ENLSFQS,area with substrate ENLVFQS,area with substrate ENLWFQS,area with substrate ENLGFQS,area with substrate ENLIFQS,area with substrate ENLCFQS,area with substrate ENLTFQS
MGESLFKGPRDYNPISSSICHLTNESDGHTTSLYGIGFGPFIITNKHLFRRNNGTLVVQSLHGVFKVKDTTTLQQHLVDGRDMIIIRMPKDFPPFPQKLKFREPQREERICLVTTNFQTKSMSSMVSDTSCTFPSGDGIFWKHWIQTKDGQCGSPLVSTRDGFIVGIHSASNFTNTNNYFTSVPKNFMELLTNQEAQQWVWGWRLNADSVLWGGHKVFMVKPEEPFQPVKEATQL [S201W],0.0605,0.0698,0.0772,0.103,0.0719,0.0656,0.0717,0.0793,0.0634,0.0591,0.0702,0.0676,0.0751,0.0495,0.0601,,,,
MGESLFKGPRDYNPISSSICHLTNESDGHTTSLYGIGFGPFIITNKHLFRRNNGTLVVQSLHGVFKVKDTTTLQQHLVDGRDMIIIRMPKDFPPFPQKLKFREPQREERICLVTTNFQTKSMSSMVSDTSCTFPSGDGIFWKHWIQTKDGQCGSPLVSTRDGFIVGIHSASNFTNTNNYFTSVPKNFMELLTNQELQQWVSGWRLNADSVLWGGHKVFMVKPEEPFQPVKEATQL [A196L],0.0742,0.0604,0.0571,0.1,0.0707,0.0857,0.0879,0.0818,0.0672,0.059,0.0733,0.0804,0.0598,,0.0644,0.0448,0.0541,,
MGESLFKGPRDYNPISSSICHLTNESDGHTTSLYGIGFGPFIITNKHLFRRNNGTLVVQSLHGVFKVKDTTTLQQHLVDGRDMIIIRMPKDFPPFPQKLKFREPQREERICLVTTNFQTKSMSSMVSDTSCTFPSGDGIFWKHWIQTKDGQCGSPLVSTRDGFIVGIHSASNFTNTNNYFTSVPKNFMELLTNQEAQQWVSGWRLNADSVLWGGHKVFCVKPEEPFQPVKEATQL [M219C],0.0543,0.0765,0.0709,0.0932,0.0597,0.0688,,,0.0729,0.0736,0.0614,,0.0991,,0.0631,,,,
MGESLFKGPRDYNPISSSICHLTNESDGHTTSLYGIGFGPFIITNKHLFRRNNGTLVVQSLHGVFKVKDTTTLQQHLVDGRDMIIIRMPKDFPPFPQKLKFREPQREERICLVTTNFQTKSMSSMVSDTSCTFPSGDGIFWKHWIQTKDGQCGSPLVSTRDGFIVGIHSASNFTNTNNYFTSVPKNFMELLTNQEAQQWVSGWRWNADSVLWGGHKVFMVKPEEPFQPVKEATQL [L205W],0.0599,0.0466,,0.0811,0.059,0.0645,,,0.0619,,,0.0863,0.0741,,0.0585,,,0.0621,
MGESLFKGPRDYNPISSSICHLTNESDGHTTSLYGIGFGPFIITNKHLFRRNNGTLVVQSLHGVFKVKDTTTLQQHLVDGRDMIIIRMPKDFPPFPQKLKFREPQREERICLVTTNFQTKSMSSMVSDTSCTFPSGDGIFWKHWIQTKDGQCGSPLVSTRDGFIVGIHSASNFTNTNNYFTSVPKNFMELLTNQEAQQWVSGWRLNADSVLWFGHKVFMVKPEEPFQPVKEATQL [G213F],0.0567,0.0657,,0.0595,0.0594,,,,0.0546,0.0609,,0.0392,,0.0524,0.0609,0.0554,0.0536,0.0557,
MGESLFKGPRDYNPISSSICHLTNESDGHTTSLYGIGFGPFIITNKHLFRRNNGTLVVQSLHGVFKVKDTTTLQQHLVDGRDMIIIRMPKDFPPFPQKLKFREPQREERICLVTTNFQTKSMSSMVSDTSCTFPSGDGIFWKHWIQTKDGQCGSPLVSTRDGFIVGIHSASNFTNTNNYFTSVPKNFMELLTNQEAQQWVSGWTLNADSVLWGGHKVFMVKPEEPFQPVKEATQL [R204T],0.0391,0.061,0.0528,0.0857,0.0656,0.0835,0.0822,,0.0668,0.0515,,0.0666,0.0646,,0.0729,,0.0774,0.0698,
MGESLFKGPRDYNPISSSICHLTNESDGHTTSLYGIGFGPFIITNKHLFRRNNGTLVVQSLHGVFKVKDTTTLQQHLVDGRDMIIIRMPKDFPPFPQKLKFREPQREERICLVTTNFQTKSMSSMVSDTSCTFPSGDGIFWKHWIQTKDGQCGSPLVSTRDGFIVGIHSASNFTNTNNYFTSVPKNEMELLTNQEAQQWVSGWRLNADSVLWGGHKVFMVKPEEPFQPVKEATQL [F187E],0.0519,0.0512,0.0503,0.0684,0.0502,0.0475,0.0517,0.0428,,0.0527,0.054,0.0511,0.0683,,0.0507,,0.0578,0.0706,
MGESLFKGPRDYNPISSSICHLTNESDGHTTSLYGIGFGPFIITNKHLFRRNNGTLVVQSLHGVFKVKDTTTLQQHLVDGRDMIIIRMPKDFPPFPQKLKFREPQREERICLVTTNFQTKSMSSMVSDTSCTFPSGDGIFWKHWIQTKDGQCGSPLVSTRDGFIVGIHSASNFTNTNNYFTSVPKNQMELLTNQEAQQWVSGWRLNADSVLWGGHKVFMVKPEEPFQPVKEATQL [F187Q],0.0601,0.0616,0.049,0.0549,0.0562,0.0559,0.0532,0.062,0.0598,0.0508,0.0581,,0.0553,0.0777,,,0.0679,0.0614,
MGESLFKGPRDYNPISSSICHLTNESDGHTTSLYGIGFGPFIITNKHLFRRNNGTLVVQSLHGVFKVKDTTTLQQHLVDGRDMIIIRMPKDFPPFPQKLKFREPQREERICLVTTNFQTKSMSSMVSDTSCTFPSGDGIFWKHWIQTKDGQCGSPLVSTRDGFIVGIHSASNFTNTNNYFTSVPKNFMELLTNQEAQQWVSGWRLNADSVLKGGHKVFMVKPEEPFQPVKEATQL [W212K],0.0582,0.0624,0.0699,0.0641,0.0753,0.0631,0.0687,,0.0615,0.066,0.0872,0.0515,0.0585,,,,,0.0681,0.0613
